Among the data in PubChem BioAssay AID488969 (Vanderbilt High Throughput Screening Facility, 2010) are z-score values, retold here.

Where “and” joins values, the source holds several entries; their conditions need not be identical. Equal entries are not always repeated. Over roughly 110,000 compounds, “z-score” has its median near -0.1; the highest 2% begin near 2. Some of the results follow. Calls of active or inactive are those of the source.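 Rule for the calls: active = z-score in the third read window above 3 or below -3; inactive = the rest.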

The assay has as its target Metabotropic glutamate receptor 8 (Rattus norvegicus) (UniProt P70579). Nature of the assay: rat mGluR8 modulators via GIRK flux, primary screen, cell-based, thallium flux, HTS (AID 488969). Conditions: HEK293 rat mGluR8, GIRK (G protein-gated inwardly rectifying potassium channel) thallium flux, FluoZin2; at 10 µM; stronger effect = higher value; submaximal glutamate (EC20) added with thallium.
Chain of UniProt P70579 (P70579 whole entry, looked up): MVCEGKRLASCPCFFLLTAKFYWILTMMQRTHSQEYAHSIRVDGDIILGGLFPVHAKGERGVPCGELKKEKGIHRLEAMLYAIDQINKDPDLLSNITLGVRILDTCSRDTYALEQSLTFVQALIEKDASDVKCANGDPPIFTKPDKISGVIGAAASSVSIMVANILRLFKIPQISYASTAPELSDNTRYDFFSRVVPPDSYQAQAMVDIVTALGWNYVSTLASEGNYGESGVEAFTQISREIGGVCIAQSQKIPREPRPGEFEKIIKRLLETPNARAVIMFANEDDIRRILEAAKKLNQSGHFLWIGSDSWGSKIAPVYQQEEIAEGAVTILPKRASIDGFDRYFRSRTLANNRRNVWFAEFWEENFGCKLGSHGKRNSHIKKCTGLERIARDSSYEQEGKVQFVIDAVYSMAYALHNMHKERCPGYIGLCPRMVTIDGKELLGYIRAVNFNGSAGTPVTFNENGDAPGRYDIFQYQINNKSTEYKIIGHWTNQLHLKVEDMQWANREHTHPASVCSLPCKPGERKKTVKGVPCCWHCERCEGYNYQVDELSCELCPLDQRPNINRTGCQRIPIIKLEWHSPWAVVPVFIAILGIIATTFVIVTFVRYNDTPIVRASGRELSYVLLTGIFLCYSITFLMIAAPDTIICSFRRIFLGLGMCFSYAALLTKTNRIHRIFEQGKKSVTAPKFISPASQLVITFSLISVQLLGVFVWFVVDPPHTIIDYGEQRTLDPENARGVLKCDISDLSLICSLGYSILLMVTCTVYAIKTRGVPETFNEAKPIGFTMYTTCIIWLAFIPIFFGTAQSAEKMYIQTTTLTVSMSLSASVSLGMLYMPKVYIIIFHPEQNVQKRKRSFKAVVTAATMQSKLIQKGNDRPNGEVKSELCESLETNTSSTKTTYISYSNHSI
For the molecule `CCOC(=O)c1c(NC(=O)c2ccoc2C)sc2c1CCC2`, the z-score is -0.429. With `CC(C)NC(=O)C1CCN(Cc2cnn(-c3ccccc3)c2-n2cccc2)CC1`, the z-score is -0.777. The molecule `Cc1cc2ncn(S(=O)(=O)N3CCOCC3)c2cc1C` gave a z-score of -0.099.

The molecule `O=C(/C=C/c1cccc(C(F)(F)F)c1)Nc1cccc(C(F)(F)F)c1` showed a z-score of -0.246. Molecule `CCSc1nc2ccc(OC)cc2cc1C#N` came in with a z-score of -0.381.

`O=C(OCCN1C(=O)c2ccccc2C1=O)c1cc(S(=O)(=O)N2CCOCC2)ccc1F` came in with a z-score of -0.0479. For the molecule `CCCC(=O)NNC(=O)CCC(=O)NCc1ccccc1`, the z-score is -0.151. As to `CC1(C)CC(=O)c2cc(OCC(=O)NCCCN3CCN(c4ccc(F)cc4)CC3)ccc2O1`, the z-score worked out at 0.0517. The molecule `COc1cc(C2C(C(C)=O)=C(O)C(=O)N2CCc2ccc(OC)c(OC)c2)ccc1O` (stereo unspecified) displayed a z-score of 0.323.

The molecule `CC(OC(=O)c1ccc2c(=O)n3c(nc2c1)CCCCC3)C(=O)Nc1ccc(Cl)cn1` (stereo unspecified) had a z-score of -0.541.

On to `CCNC(=O)c1nc[nH]c1C(=O)NCC`, for which the z-score was -0.0678.

Molecule `O=C(NCCCn1ccnc1)/C(=C/c1ccco1)NC(=O)c1ccccc1` returned a z-score of 0.0563. The figure for `Cc1[nH]c2ccc3c(ncn3CCC#N)c2c1C` is -0.0538; for `CCNc1nc(NC(C)C)nc(NS(=O)(=O)c2ccc(N)cc2)n1` it is 0.299.

The molecule `CC(C)(C)c1ccc(CN(Cc2ccco2)Cc2nnnn2C2CCCC2)cc1` yielded a z-score of -0.482. Next, `CC(NC(=O)C1CCCN(S(=O)(=O)c2cnc[nH]2)C1)c1ccccc1` (stereo unspecified): -0.224; `O=C(Cc1cc(=O)[nH][nH]1)N/N=C/c1ccccc1[N+](=O)[O-]`: -0.295. Next, `Clc1ccc(OCc2nn3c(C4CCCCC4)nnc3s2)cc1`: -0.121; `CCOC(=O)N1CCC(NC(=O)C2CCN(S(=O)(=O)N3CCC(C)CC3)CC2)CC1`: 0.687. The molecule `Cc1cccc(NC(=O)C2CCCN2C(=O)Oc2ccccc2)c1C` (stereo unspecified) gave a z-score of 0.178. In the case of `CCN(CC)CCCNc1oc(-c2ccc(OC)c(OC)c2)nc1C#N`, the z-score was -0.222.

For the molecule `O=C1NC(=O)[C@@H]2C3c4ccccc4C=CN3[C@H](C(=O)c3cccs3)[C@H]12` (stereo partly specified), the z-score was -0.687.

For `COc1ccc2ccccc2c1/C=N/NC(=O)c1sc(N)c(C#N)c1C`, the z-score is -0.625.

In turn, `CC(c1ccccc1F)n1cc(C(=O)NCCc2ccco2)nn1` (stereo unspecified) registered a z-score of -0.606. The molecule `COc1ccc(C2C(C(N)=O)=C(C)Nc3ncnn32)cc1` (stereo unspecified) registered a z-score of -0.213. `COc1cccc(C2NC(=O)NC(C)=C2C(=O)OCCSC)c1OC` (stereo unspecified) registered a z-score of 0.0431. Molecule `CCC(=O)Nc1ccc(C(=O)Nc2ccc(OC)cc2[N+](=O)[O-])cc1` yielded a z-score of -0.0433.

Take `CCc1ccc(NC(=O)C(C)OC(=O)c2cccc(S(=O)(=O)N3CCc4ccccc4C3)c2)cc1` (stereo unspecified): the z-score was -0.686. In turn, `COc1ccc(C(=O)NC(=S)NNC(=O)Cc2cccs2)cc1` showed a z-score of 0.741.

`O=C(c1ccc(S(=O)(=O)N2CCCCC2)cc1)N1CCN=C1SCc1cccnc1` gave a z-score of 0.0251. On to `FC(F)(F)c1cc(Oc2ccc(Cl)cc2)nc(-c2ccccn2)n1`, for which the z-score is -0.207.

In turn, `Cc1ccc(-n2nc(C(=O)N3CCN(C)CC3)c3c4ccccc4n(C)c3c2=O)cc1` yielded a z-score of -0.129. Regarding `CCc1nc(C)ccc1OCC(=O)N(CC)CC`, the z-score was -0.238. `Cc1cc(N2CCN(c3nc4ccccc4s3)CC2)n2ncnc2n1` had a z-score of -1.35. `O=C(Cc1ccccc1)NCCCc1ccccc1`: the z-score was 0.0139. `COc1ccc2c(c1)OC(O)(C(F)F)CC2=O` (stereo unspecified) returned a z-score of 0.794. On to `O=C(/C=C\c1ccccc1)Nc1nccs1`, for which the z-score was 0.24. Molecule `COC(=O)C(Cc1ccc(OC(=O)c2ccc(C)cc2)cc1)N1Cc2ccccc2C1=O` (stereo unspecified) had a z-score of 0.664. Next, `Cn1c(=O)c2c(nc(CN3CCC(C(N)=O)CC3)n2CCCc2ccccc2)n(C)c1=O`: -0.371. The figure for `O=C1c2ccccc2C(Nc2ccc(S(=O)(=O)N3CCOCC3)cc2)N1c1cccnc1` (stereo unspecified) is 0.421; for `O=C1CC(C(=O)Nc2ccccc2)C2(CCCC2)O1` (stereo unspecified) it is -0.154; for `Clc1ccccc1CN1CCC(Cc2ccccc2)CC1` it is -0.0513. Turning to `O=S(=O)(c1ccc2ccccc2c1)N1CCCOC1`, the z-score is 1.06. As to `Cc1ccc(NC(=O)NCCCN2CCCC2=O)cc1`, the z-score was -0.26.

As for `Cn1nc([N+](=O)[O-])c2c(-c3nc4ccccc4s3)c(N)n(C3CCCCC3)c2c1=O`, the z-score is -0.261.

With `Cc1c(C(=O)C(=O)NCCC2=CCCCC2)c2ccccc2n1C`, the z-score is -0.264. Molecule `CN(C)S(=O)(=O)c1ccc(-c2csnn2)s1` had a z-score of -0.237. Turning to `S=c1nc(C2CCCCC2)[nH][nH]1`, the z-score is -0.0473. The molecule `C=CCN1C(=O)C(O)(CC(=O)c2ccc(OC)cc2OC)c2cc(Br)ccc21` (stereo unspecified) registered a z-score of -0.551. The figure for `Cc1ccc(S(=O)(=O)N2CCCC2C(=O)OCc2ccccc2)cc1` (stereo unspecified) is -0.73; for `Cc1ccc(Nc2nc(CSc3nnc(-c4ccncc4)n3C)cs2)cc1` it is -0.0472; for `CCOc1ccccc1NC=C1C(=O)OC(C)(C)OC1=O` it is -0.229.

`COc1ccc(-c2nsc(SCC(=O)NCc3ccc4c(c3)OCO4)n2)cc1` registered a z-score of -0.208. `COc1ccc(NC(=O)c2cccc(-n3c(C)ccc3C)c2)c(OC)c1` had a z-score of -0.204. `COc1ccccc1CNC(=O)CC(C)C` had a z-score of 0.319. As for `O=C(Nc1ccc(Nc2ccccc2)cc1)C1CC1`, the z-score is -0.457.

The molecule `Cc1ccc(-c2noc(CCC(=O)N3CCCc4ccccc43)n2)cc1` displayed a z-score of -0.0319. As for `O=C(Nc1nc(-c2ccncc2)cs1)C1c2ccccc2Oc2ccccc21`, the z-score was -0.547.

Regarding `CCOCCCNc1ncc2c(n1)CC(c1ccc(C)cc1)CC2=O` (stereo unspecified), the z-score was -0.414. In turn, `Cc1oc(-c2ccc(Cl)cc2)nc1CN1CCC(C(=O)N2CCc3ccccc3C2)CC1` displayed a z-score of 0.118. For the molecule `Cc1cccn2c(=O)c(/C=C(\C#N)C(=O)NCc3ccco3)c(N3CCC(C(N)=O)CC3)nc12`, the z-score was -0.287. On to `COc1cc(-c2nc3ccc4ccccc4c3c3c2CCC3)ccc1O`, for which the z-score is -0.0978.

With `O=C(O)CN(c1ccc(F)cc1)S(=O)(=O)c1ccc2c(c1)OCCO2`, the z-score was -0.28. `CCN(CCO)Cc1csc2ccc(Br)cc12`: the z-score turned out to be 0.78.

`COc1ccc(Br)cc1/C=N/NC(=O)CNC(=O)/C=C/c1ccccc1` showed a z-score of -0.0662. Molecule `CCC(C)NC(=O)N[C@@H](CCSC)C(=O)O` (stereo partly specified) displayed a z-score of -0.387.

`Cc1ccc2c(c1)NC(=O)C(CC(=O)NCc1ccc(F)cc1)O2` (stereo unspecified) showed a z-score of -0.412. With `O=C1CC(NNC(=O)c2ccccc2)C(=O)N1` (stereo unspecified), the z-score turned out to be 0.533. With `CCN1CCN(C(=O)c2cc3c(-c4ccc(Cl)cc4)nn(C)c3s2)CC1`, the z-score is -0.146.

For the molecule `CCN(CC)S(=O)(=O)c1cccc(C(=O)Nc2cc(C)nn2-c2ccccc2)c1`, the z-score was -0.00534. `Cc1cc(NCCN2CCOCC2)n2nc(C)c(-c3ccc(Cl)cc3)c2n1` displayed a z-score of -0.362. Next, `c1ccc(-c2ccnc3nc(N4CCN(c5ccccc5)CC4)nn23)cc1`: -0.295. The figure for `OC1(c2cccc(C(F)(F)F)c2)CCN(c2ccc(-c3ccccc3)nn2)CC1` is 0.309; for `Cc1ccc(-c2cc(-c3ccccc3)nc(N/N=C/c3cccnc3)n2)cc1` it is -0.172; for `COc1ccc(C(=O)NNC(=O)CN2CCN(c3nc(-c4ccccc4)cs3)CC2)cc1` it is -0.232. As to `CCOc1cc(/C=N/NC(=O)c2ccncc2)ccc1OS(C)(=O)=O`, the z-score was -0.0651. Molecule `O=C(COC(=O)CCC(=O)c1ccc2c(c1)OCCO2)NCc1ccc2c(c1)OCO2` returned a z-score of -0.296. With `CC12CCC(C(=O)O)(C/C1=N\O)C2(C)C` (stereo unspecified), the z-score is 0.0736 and -0.508. `CCOc1cc(C2CC(=O)NC3=C2C(=O)C(C(=O)OC)C(C)C3)cc(Cl)c1O` (stereo unspecified) came in with a z-score of -0.0526. For `Cc1ccc(NC(=O)CCC(=O)NNC(=O)c2cccs2)c(C)c1`, the z-score is -0.321.

Regarding `CC(C)(SC(=S)N1CCOCC1)C(=O)O`, the z-score was -0.326. `Cn1c(=O)c2ncn(CC(=O)Nc3ccc4oc(-c5cccc6ccccc56)nc4c3)c2n(C)c1=O` returned a z-score of 0.0361. Take `COC(=O)C1=C(C)NC(=O)/C1=C\c1ccc2c(c1)OCO2`: the z-score is -0.536. For the molecule `O=C(Nc1cccc(Cl)c1)Nc1cc(S(=O)(=O)N2CCOCC2)ccc1N1CCCC1`, the z-score came out at 0.195.

The molecule `CCOC(=O)c1[nH]c2ccc(OC)cc2c1NC(=O)NC(C)C` had a z-score of -0.0201. `COc1ccc(C2/C(=C(\O)c3ccc(OC)c(Cl)c3)C(=O)C(=O)N2CCN(C)C)cc1` (stereo unspecified) yielded a z-score of -0.505. With `CC(C)NC(=O)NS(=O)(=O)c1cnccc1NC1CC2CCC1C2` (stereo unspecified), the z-score is -0.202. For `O=C(C1CCN(S(=O)(=O)N2CCCC2)CC1)N1CCCCC1`, the z-score is -0.0537.

With `CC(NC(=O)c1noc2c1CCCC2)c1ccccc1` (stereo unspecified), the z-score was -1.87.

`CC(CN(C)Cc1ccccc1)OC(=O)c1ccccc1F` (stereo unspecified) had a z-score of 0.00558. On to `C=CCn1c(N2CCCCCC2)nc2c1c(=O)n(C)c(=O)n2C`, for which the z-score is 0.717. For the molecule `Fc1ccc(Br)cc1C1C=C(c2cccnc2)Nc2ncnn21` (stereo unspecified), the z-score was 0.196.

For the molecule `COC(=O)C1CCN(C(=O)/C=C/c2ccc(OC)cc2)CC1`, the z-score is -0.971.

As for `Cc1cc(C(=O)N2CCN(CCc3ccccc3)CC2)no1`, the z-score is active: 8.2. The molecule `CC1CCN(S(=O)(=O)c2cccc(C(=O)Nc3nccs3)c2)CC1` had a z-score of 0.0291.

In turn, `COC(=O)CCC(=O)Nc1ccc(OC)cc1` had a z-score of 0.258. Consider `CCCCCc1c(C)c(C#N)c2nc3ccccc3n2c1-n1ccnc1C`, for which the z-score is -0.4.

With `Cc1c(NC(=O)C(C)OC(=O)c2cc(-c3cccc4ccccc34)nc3ccccc23)c(=O)n(-c2ccccc2)n1C` (stereo unspecified), the z-score is -0.576.

For `COC(=O)c1cc(CNC(=O)c2cccc(Cl)c2)ccc1OC`, the z-score amounted to 0.03. As to `CCC(c1nnnn1C1CCCC1)N1CCN(c2ccccc2)CC1` (stereo unspecified), the z-score came out at 0.793. On to `Cc1c(Br)c(C(N)=O)nn1C`, for which the z-score is 0.474.

`COc1ccc(-c2c(NC(=O)C(C)C)n(C)c3ccccc3c2=O)cc1` yielded a z-score of -0.459.

Molecule `COc1ccc2[nH]c(=O)c(CN(Cc3cccs3)Cc3nnnn3Cc3ccccc3)cc2c1` yielded a z-score of -0.257. Molecule `CCCCOCCCNS(=O)(=O)Cc1ccccc1` gave a z-score of -1.16. `COc1cc(NS(=O)(=O)c2ccc(NC(=O)c3ccc(C)o3)cc2)nc(OC)n1` yielded a z-score of 0.108. `CCc1nc(N)c(C#N)c(-c2ccccc2OC)c1C` gave a z-score of -0.316. With `CCOC(=O)CN1CC23C=CC(O2)C(C(=O)NCc2cccs2)C3C1=O` (stereo unspecified), the z-score was 0.147. `COc1ccc2oc(C(=O)CCC(=O)O)c(N)c2c1` returned a z-score of 0.292. On to `CC(=O)/C(=N\Nc1ccccc1)Sc1nnc(-c2ccccc2)n1-c1ccccc1`, for which the z-score is -0.24. Molecule `Cn1cnnc1SCC(=O)NCCC(c1ccccc1)c1ccccc1` came in with a z-score of -0.225. Next, `Cc1nc2ccccc2nc1OCC(=O)Nc1ccc2ccccc2c1`: -0.194.
